# Experimental data as given in the supplement of paper PMC6089552.
# Among all 3,200 compounds or so, about 300 (9.4%) showed activity. The entries are a selection whose mix differs from that of the whole data set.
# System: A673/TR/shEF
# Assay: cell viability (LOESS-normalised, relative to median of negative controls) (log2 ratio); higher = more viable cells (less compound effect), active = hit call of the paper (over 3 MAD below the median)
# Settings: treatment time: 72 h
# Method in brief: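 Doxycycline, present or absent from 24 h before compounds, was used to induce EWS-FLI1 shRNA knockdown in A673/TR/shEF Ewing sarcoma cells at 1,500 per well in 384-well plates. Cells then received library compounds at two or more concentrations, or DMSO controls, for three days. Viability was measured by CellTiter-Glo luminescence on an Envision reader, and per-plate LOESS correction, division by the negative-control median and log2 transformation followed.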
# [1] = 0.25 µM, library screen: screen2, EWS-FLI1 expression: high (no doxycycline)
# [2] = 0.25 µM, library screen: screen2, EWS-FLI1 expression: low (doxycycline-induced shRNA knockdown)
# [3] = 2.5 µM, library screen: screen2, EWS-FLI1 expression: high (no doxycycline)
# [4] = 2.5 µM, library screen: screen2, EWS-FLI1 expression: low (doxycycline-induced shRNA knockdown)
# [5] = 0.25 µM, library screen: screen1, EWS-FLI1 expression: high (no doxycycline)
# [6] = 0.25 µM, library screen: screen1, EWS-FLI1 expression: low (doxycycline-induced shRNA knockdown)
# [7] = 2.5 µM, library screen: screen1, EWS-FLI1 expression: high (no doxycycline)
# [8] = 2.5 µM, library screen: screen1, EWS-FLI1 expression: low (doxycycline-induced shRNA knockdown)
# [9] = 0.103 µM, library screen: screen3, EWS-FLI1 expression: high (no doxycycline)
# [10] = 0.103 µM, library screen: screen3, EWS-FLI1 expression: low (doxycycline-induced shRNA knockdown)
# [11] = 0.308 µM, library screen: screen3, EWS-FLI1 expression: high (no doxycycline)
# [12] = 0.308 µM, library screen: screen3, EWS-FLI1 expression: low (doxycycline-induced shRNA knockdown)
# [13] = 0.926 µM, library screen: screen3, EWS-FLI1 expression: high (no doxycycline)
# [14] = 0.926 µM, library screen: screen3, EWS-FLI1 expression: low (doxycycline-induced shRNA knockdown)
# [15] = 2.8 µM, library screen: screen3, EWS-FLI1 expression: high (no doxycycline)
# [16] = 2.8 µM, library screen: screen3, EWS-FLI1 expression: low (doxycycline-induced shRNA knockdown)
# [17] = 8.3 µM, library screen: screen3, EWS-FLI1 expression: high (no doxycycline)
# [18] = 8.3 µM, library screen: screen3, EWS-FLI1 expression: low (doxycycline-induced shRNA knockdown)
# [19] = 25 µM, library screen: screen3, EWS-FLI1 expression: high (no doxycycline)
# [20] = 25 µM, library screen: screen3, EWS-FLI1 expression: low (doxycycline-induced shRNA knockdown)
smiles,measurement,setting,value
N[C@@H](Cc1ccc(O)c(I)c1)C(=O)O,cell viability (log2),[1],inactive: 0.00814
same,cell viability (log2),[2],inactive: 0.0104
same,cell viability (log2),[3],inactive: 0.0218
same,cell viability (log2),[4],inactive: 0.0348
CO[C@H]1C[C@H](O[C@H]2[C@H](C)[C@@H](O[C@@H]3O[C@H](C)C[C@H](N(C)C)[C@H]3O)[C@@H](C)C[C@@]3(CO3)C(=O)[C@H](C)[C@@H](O)[C@@H](C)[C@@H](C)OC(=O)[C@@H]2C)O[C@@H](C)[C@@H]1O,cell viability (log2),[5],inactive: 0.114
same,cell viability (log2),[6],inactive: 0.116
same,cell viability (log2),[7],inactive: 0.209
same,cell viability (log2),[8],inactive: 0.0933
Nc1ccc(S(=O)(=O)Nc2ccccn2)cc1,cell viability (log2),[5],inactive: 0.0477
same,cell viability (log2),[6],inactive: 0.097
same,cell viability (log2),[7],inactive: 0.18
same,cell viability (log2),[8],inactive: 0.163
CN1[C@@H]2CC[C@H]1CC(OC(c1ccccc1)c1ccccc1)C2 (stereo partly drawn),cell viability (log2),[1],inactive: 0.216
same,cell viability (log2),[2],inactive: 0.119
same,cell viability (log2),[3],inactive: 0.0438
same,cell viability (log2),[4],inactive: 0.118
Nc1ncnc2c1ncn2C1CCCO1 (stereo not drawn),cell viability (log2),[1],active: -0.183
same,cell viability (log2),[2],active: -0.136
same,cell viability (log2),[3],active: -0.771
same,cell viability (log2),[4],active: -0.568
Nc1ccn([C@@H]2O[C@H](CO)[C@@H](O)[C@@H]2O)c(=O)n1,cell viability (log2),[9],active: -0.206
same,cell viability (log2),[10],inactive: -0.0158
same,cell viability (log2),[5],inactive: 0.0194
same,cell viability (log2),[6],inactive: 0.174
same,cell viability (log2),[1],active: -0.179
same,cell viability (log2),[2],inactive: 0.162
same,cell viability (log2),[11],inactive: -0.0966
same,cell viability (log2),[12],inactive: 0.00929
same,cell viability (log2),[13],active: -0.377
same,cell viability (log2),[14],inactive: -0.00593
same,cell viability (log2),[7],active: -0.85
same,cell viability (log2),[8],inactive: 0.0115
same,cell viability (log2),[3],active: -1.17
same,cell viability (log2),[4],inactive: -0.0511
same,cell viability (log2),[15],active: -0.966
same,cell viability (log2),[16],inactive: -0.023
same,cell viability (log2),[17],active: -1.5
same,cell viability (log2),[18],active: -0.184
same,cell viability (log2),[19],active: -2.24
same,cell viability (log2),[20],active: -0.544
O=S(=O)(c1ccc(Br)c2ccccc12)n1ccnc1,cell viability (log2),[5],inactive: 0.091
same,cell viability (log2),[6],inactive: 0.0921
same,cell viability (log2),[7],inactive: 0.103
same,cell viability (log2),[8],inactive: 0.117
CN(C)CCCN1c2ccccc2Sc2ccc(Cl)cc21,cell viability (log2),[9],inactive: 0.0728
same,cell viability (log2),[10],inactive: 0.128
same,cell viability (log2),[5],inactive: 0.1
same,cell viability (log2),[6],inactive: 0.155
same,cell viability (log2),[1],inactive: 0.141
same,cell viability (log2),[2],inactive: 0.1
same,cell viability (log2),[11],inactive: 0.122
same,cell viability (log2),[12],inactive: 0.0127
same,cell viability (log2),[13],inactive: 0.0627
same,cell viability (log2),[14],inactive: 0.015
same,cell viability (log2),[7],inactive: 0.206
same,cell viability (log2),[8],inactive: 0.191
same,cell viability (log2),[3],inactive: 0.129
same,cell viability (log2),[4],inactive: 0.0664
same,cell viability (log2),[15],inactive: -0.0176
same,cell viability (log2),[16],inactive: 0.0383
same,cell viability (log2),[17],inactive: 0.101
same,cell viability (log2),[18],inactive: 0.0471
same,cell viability (log2),[19],inactive: -0.0174
same,cell viability (log2),[20],inactive: 0.0242
CCOC(=O)c1c(C)cc(O)cc1O,cell viability (log2),[5],inactive: 0.0788
same,cell viability (log2),[6],inactive: 0.0693
same,cell viability (log2),[7],inactive: 0.0357
same,cell viability (log2),[8],inactive: 0.0819
CC(C)Cn1c(=O)n(C)c(=O)c2[nH]cnc21,cell viability (log2),[5],inactive: -0.0223
same,cell viability (log2),[6],inactive: -0.0167
same,cell viability (log2),[1],inactive: 0.0628
same,cell viability (log2),[2],inactive: 0.118
same,cell viability (log2),[7],inactive: 0.0644
same,cell viability (log2),[8],inactive: 0.0361
same,cell viability (log2),[3],inactive: 0.0149
same,cell viability (log2),[4],inactive: 0.112
CCCCOc1cc(CC2CNC(=O)N2)ccc1OC (stereo not drawn),cell viability (log2),[1],inactive: 0.267
same,cell viability (log2),[2],inactive: 0.169
same,cell viability (log2),[3],inactive: 0.152
same,cell viability (log2),[4],inactive: 0.0628
COc1cc([C@@H]2c3cc4c(cc3[C@@H](O[C@@H]3O[C@@H]5CO[C@@H](c6cccs6)O[C@H]5[C@H](O)[C@H]3O)[C@H]3COC(=O)[C@H]23)OCO4)cc(OC)c1O,cell viability (log2),[9],inactive: -0.0319
same,cell viability (log2),[10],inactive: -0.00588
same,cell viability (log2),[5],active: -0.797
same,cell viability (log2),[6],active: -0.349
same,cell viability (log2),[11],active: -0.326
same,cell viability (log2),[12],inactive: -0.0159
same,cell viability (log2),[13],active: -0.931
same,cell viability (log2),[14],active: -0.262
same,cell viability (log2),[7],active: -1.74
same,cell viability (log2),[8],active: -0.557
same,cell viability (log2),[15],active: -1.32
same,cell viability (log2),[16],active: -0.472
same,cell viability (log2),[17],active: -2.12
same,cell viability (log2),[18],active: -0.477
same,cell viability (log2),[19],active: -3.07
same,cell viability (log2),[20],active: -0.784
CON,cell viability (log2),[5],inactive: 0.0595
same,cell viability (log2),[6],inactive: 0.0208
same,cell viability (log2),[7],inactive: 0.11
same,cell viability (log2),[8],inactive: -0.0161
Cc1nc(Nc2ncc(C(=O)Nc3c(C)cccc3Cl)s2)cc(N2CCN(CCO)CC2)n1,cell viability (log2),[9],inactive: -0.00181
same,cell viability (log2),[10],inactive: -0.0394
same,cell viability (log2),[11],inactive: -0.125
same,cell viability (log2),[12],inactive: -0.364
same,cell viability (log2),[13],active: -0.395
same,cell viability (log2),[14],active: -0.907
same,cell viability (log2),[15],active: -0.393
same,cell viability (log2),[16],active: -1.27
same,cell viability (log2),[17],active: -0.457
same,cell viability (log2),[18],active: -1.34
same,cell viability (log2),[19],active: -0.706
same,cell viability (log2),[20],active: -1.33
CCN(CCO)CCCC(C)Nc1ccnc2cc(Cl)ccc12 (stereo not drawn),cell viability (log2),[5],inactive: 0.00358
same,cell viability (log2),[6],inactive: 0.138
same,cell viability (log2),[7],inactive: 0.146
same,cell viability (log2),[8],inactive: 0.0473
CC(C)c1ccc2c(c1)c(SC(C)(C)C)c(CC(C)(C)C(=O)O)n2Cc1ccc(Cl)cc1,cell viability (log2),[1],inactive: 0.108
same,cell viability (log2),[2],inactive: 0.0402
same,cell viability (log2),[3],inactive: 0.11
same,cell viability (log2),[4],inactive: 0.113
COc1cc(O)c2c(=O)cc(-c3ccc(O)cc3)oc2c1,cell viability (log2),[5],inactive: 0.0387
same,cell viability (log2),[6],inactive: 0.0715
same,cell viability (log2),[7],inactive: 0.112
same,cell viability (log2),[8],inactive: 0.0435
C[C@@H](O)[C@H]1C(=O)N2C(C(=O)[O-])=C(SC3Cn4cnc[n+]4C3)[C@H](C)[C@H]12 (stereo partly drawn),cell viability (log2),[9],inactive: 0.0935
same,cell viability (log2),[10],inactive: 0.0362
same,cell viability (log2),[11],inactive: 0.108
same,cell viability (log2),[12],inactive: 0.0849
same,cell viability (log2),[13],inactive: 0.0657
same,cell viability (log2),[14],inactive: 0.0643
same,cell viability (log2),[15],inactive: 0.107
same,cell viability (log2),[16],inactive: 0.0482
same,cell viability (log2),[17],inactive: 0.0477
same,cell viability (log2),[18],inactive: 0.0712
same,cell viability (log2),[19],inactive: 0.131
same,cell viability (log2),[20],inactive: 0.0731
Cc1nc(-c2ccc(OCC(C)C)c(C#N)c2)sc1C(=O)O,cell viability (log2),[9],inactive: 0.0284
same,cell viability (log2),[10],inactive: 0.0416
same,cell viability (log2),[11],inactive: 0.0934
same,cell viability (log2),[12],inactive: 0.0712
same,cell viability (log2),[13],inactive: 0.041
same,cell viability (log2),[14],inactive: 0.0602
same,cell viability (log2),[15],inactive: 0.0702
same,cell viability (log2),[16],inactive: -0.0146
same,cell viability (log2),[17],inactive: 0.0469
same,cell viability (log2),[18],inactive: 0.0999
same,cell viability (log2),[19],inactive: 0.0851
same,cell viability (log2),[20],inactive: 0.0135
CC(=O)[C@H]1CC[C@H]2[C@@H]3CC=C4C[C@@H](O)CC[C@]4(C)[C@H]3CC[C@]12C,cell viability (log2),[5],inactive: 0.241
same,cell viability (log2),[6],inactive: 0.273
same,cell viability (log2),[7],inactive: 0.258
same,cell viability (log2),[8],inactive: 0.296
CN(C)c1ccc(C(=C2C=CC(=[N+](C)C)C=C2)c2ccc(N(C)C)cc2)cc1,cell viability (log2),[9],inactive: 0.0956
same,cell viability (log2),[10],inactive: -0.0594
same,cell viability (log2),[5],inactive: 0.105
same,cell viability (log2),[6],inactive: 0.00922
same,cell viability (log2),[11],inactive: 0.0542
same,cell viability (log2),[12],inactive: 0.0588
same,cell viability (log2),[13],inactive: 0.098
same,cell viability (log2),[14],inactive: 0.0226
same,cell viability (log2),[7],inactive: 0.0691
same,cell viability (log2),[8],inactive: 0.106
same,cell viability (log2),[15],active: -0.295
same,cell viability (log2),[16],active: -0.547
same,cell viability (log2),[17],active: -2.54
same,cell viability (log2),[18],active: -1.19
same,cell viability (log2),[19],active: -4.26
same,cell viability (log2),[20],active: -1.87
